Source: publication PMC8633501
Results are given in words; binding and its absence hold for the method and conditions named. In cells and extracts the contact can be indirect. Some results given as binding are weak or reduced against the parent protein; the word gives no strength. Tags and fused reporters may be left off the sequences shown.

B1: ROC8 expressed in rice protoplasts (ROC8-Flag and ROC8-GFP) (protein, UniProt Q69T58 1-710)
chain: MDFGDEPEGSDSQRRRKRYHRHTPRQIQQLEAMFKECPHPDENQRAQLSRELGLEPRQIKFWFQNRRTQMKAQHERADNCFLRAENDKIRCENIAIREALKNVICPTCGGPPVGEDYFDEQKLRMENARLKEELDRVSNLTSKYLGRPFTQLPPATPPMTVSSLDLSVGGMGGPSLDLDLLSGGSSGIPFQLPAPVSDMERPMMAEMATRAMDELIRLAQAGDHIWSKSPGGGVSGGDARETLNVDTYDSIFSKPGGSYRAPSINVEGSRESGLVLMSAVALADVFMDTNKWMEFFPSIVSKAHTIDVLVNGMGGRSESLILMYEELHIMTPAVPTREVNFVRYCRQIEQGLWAIADVSVDLQRDAHFGAPPPRSRRLPSGCLIADMANGYSKVTWVEHMEVEEKSPINVLYRDLVLSGAAFGAHRWLAALQRACERYASLVALGVPHHIAGVTPEGKRSMMKLSQRMVNSFCSSLGASQMHQWTTLSGSNEVSVRVTMHRSTDPGQPNGVVLSAATSIWLPVPCDHVFAFVRDENTRSQWDVLSHGNQVQEVSRIPNGSNPGNCISLLRGLNASQNSMLILQESCTDASGSLVVYSPIDIPAANVVMSGEDPSSIPLLPSGFTILPDGRPGSAAGASTSSAGPLAAARGGGGGGAGGGSVVTVAFQILVSSLPSSKLNAESVATVNGLITTTVEQIKAALNCSAHGHHP
B2: ROC8 BiFC fusions (ROC8-nYFP and ROC8-cYFP) (protein, UniProt Q69T58 1-710)
chain: B1 chain
B3: ROC5 expressed in rice protoplasts (ROC5-GFP and ROC5-His) (protein, UniProt Q6EPF0 1-804)
chain: MSFGGLFDGGGGGGMQFPFASGFASSPALSLALDNAGGGIGGRMLGGGAGAGSSAGGAMTRDTEAENDSRSGSDHLDAISAAGEDDVEDAEPSNSRKRKKRYHRHTPQQIQELEALFKECPHPDEKQRAELSRRLSLDARQVKFWFQNRRTQMKTQLERHENALLKQENDKLRAENMTIREAMRSPMCGSCGSPAMLGEVSLEEQHLRIENARLKDELNRVCALATKFLGKPISLLSPPPLLQPHLSLPMPNSSLELAIGGIGGLGSLGTLPGCMNEFAGGVSSPMGTVITPARATGAAIPSLVGNIDRSVFLELAISAMDELVKMAQMDDPLWVPALPGSPSKEVLNFEEYLHSFLPCIGMKPAGYVSEASRESGLVIIDNSLALVETLMDERRWSDMFSCMIAKATVLEEVSTGIAGSRNGALLLMKAELQVLSPLVPIREVTFLRFCKQLAEGAWAVVDVSIDGLVRDHNSGTAPTGGNVKCRRVPSGCVMQDTPNGYCKVTWVEHTEYDEASVHQLYRPLLRSGLAFGARRWLATLQRQCECLAILMSSATVTANDSTAISQEGKRSMLKLARRMTENFCAGVSASSAREWSKLDGATGSIGEDVRVMARKSVSEPGEPPGVVLSAATSVWVPVAPEKLFNFLRDEQLRAEWDILSNGGPMQEMTQIAKGQRDGNSVSLLRASAVSANQSSMLILQETCTDASGSIVVYAPVDIPAMQLVMNGGDSTYVALLPSGFAILPDGPRIGATGYETGGSLLTVAFQILVNNQPTAKLTVESVETVNNLISCTIKKIKTALQCDA
B4: ROC5 BiFC fusions (ROC5-nYFP and ROC5-cYFP) (protein, UniProt Q6EPF0 1-804)
chain: B3 chain
B5: ROC8 co-expressed as competitor in the BiFC assay (protein, UniProt Q69T58 1-710)
chain: B1 chain
B6: ROC5 co-expressed as competitor in the BiFC assay (protein, UniProt Q6EPF0 1-804)
chain: B3 chain

Columns and labels:
[1] = molecular target: T1, ROC5 expressed in rice protoplasts (ROC5-GFP and ROC5-His) (rice (Oryza sativa L.)) (UniProt Q6EPF0); assay: co-IP; rice protoplasts transfected and incubated overnight; extract (150mM KCl, 50mM HEPES pH7.5, 0.4% Triton-X 100, 1mM DTT) with GFP-Trap magnetic beads 2 h at 4°C; immunoblot with anti-GFP, anti-Flag, anti-His; in Figure 4 also with a third co-transfected protein
T1 sequence: B3 chain

[2] = molecular target: ROC8 expressed in rice protoplasts (ROC8-Flag and ROC8-GFP) (rice (Oryza sativa L.)) (UniProt Q69T58); assay: as above
[3] = molecular target: T2, ROC8 BiFC fusions (ROC8-nYFP and ROC8-cYFP) (rice (Oryza sativa L.)) (UniProt Q69T58); assay: split reporter; competition: nYFP and cYFP fusions of one protein co-expressed in tobacco leaves with the other protein as a third, or with a truncated control (P6, X7)
T2 sequence: B1 chain

[4] = molecular target: T3, ROC5 BiFC fusions (ROC5-nYFP and ROC5-cYFP) (rice (Oryza sativa L.)) (UniProt Q6EPF0); assay: split reporter; nYFP and cYFP fusions co-infiltrated by Agrobacterium into N. benthamiana leaves with p19 and the nuclear marker D53-mCherry; confocal microscopy 48 to 72 h after infiltration
T3 sequence: B3 chain

[5] = molecular target: T2, ROC8 BiFC fusions (ROC8-nYFP and ROC8-cYFP) (rice (Oryza sativa L.)); assay: as above
[6] = molecular target: T3, ROC5 BiFC fusions (ROC5-nYFP and ROC5-cYFP) (rice (Oryza sativa L.)); assay: split reporter; competition: nYFP and cYFP fusions of one protein co-expressed in tobacco leaves with the other protein as a third, or with a truncated control (P6, X7)

Binder | binding [1] | binding [3] | binding [4] | binding [6] | further results
B1 | binds |  |  |  | binding [2]: binds
B2 |  | binds | binds |  | binding [5]: binds
B3 | binds |  |  |  | 
B4 |  |  | binds | binds | 
B5 |  |  |  | binds | 
B6 |  | binds |  |  | 
